Experimental data as given in PubChem BioAssay AID1963576 (National Center for Advancing Translational Sciences (NCATS), 2024).
In all, about 46,000 compounds went through this assay and about 60 (0.1%) were called active. Roughly 3% stayed inconclusive and do not appear here. Calls follow the shape of the dose curve; as a rule, active = well fitted inhibition curve with a large enough effect; inconclusive = small, poorly fitted or top-dose-only effect; inactive = no such curve, though single readings can be large or run the other way. Some of the results follow.

test: Primary qHTS assay for Inhibitors of ovarian cancer metastasis using an organotypic tumor microenvironment (TME) model.; also: nearly all actives have a fitted effect of over 65% in size;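 as to activity change, negative = inhibition: plate controls were DMSO wells for no effect and tomatine positive control wells for full effect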; conditions: SKOV3ip1-GFP adhesion/invasion on 3D omental model, fluorescence; series mostly up to 45.8 µM; activity change, negative = inhibition: at the top concentration
Outline: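 qHTS, 4-pt dose (0.36-46 umol/L); SKOV3ip1-GFP, 1,200 cells/well, no FBS; primary omental fibroblast/mesothelial co-culture 48 h pre-grown; 2 h RT + 16 h 37 C; PBS wash, 4% PFA; GFP count 488/509 nm.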

SMILES	activity change, negative = inhibition	outcome
CCc1ccccc1N(CC)C(=O)Cn1nc(Cc2ccncc2)c2ccccc2c1=O	inactive: -10%	–
O=C(NCCS(=O)(=O)N1CCN(c2ccccc2F)CC1)C1CC(=O)N(c2ccc(F)cc2)C1 (stereo unspecified)	inactive: 6.5%	–
Cc1ccc(S(=O)(=O)C(CNS(=O)(=O)c2ccc(F)c(C)c2)c2cccs2)cc1 (stereo unspecified)	inactive: 14.5%	–
O=C(CCc1nc(-c2cccs2)no1)Nc1ccc([N+](=O)[O-])cc1	inactive: 0.367%	–
COc1ccc(CNC(=O)C(=O)NCC(c2cccs2)S(=O)(=O)c2cccs2)cc1 (stereo unspecified)	–	inactive
Cc1cccc(NC(=O)COc2ccc3oc4c(c3c2)CCCC4)c1	inactive: -4.06%	–
Cc1ccc(OCC(=O)Nc2cccc3ccc(C)nc23)c(C)c1	inactive: 11%	–
O=C(CCC1N=C2c3ccccc3N=C(SCC(=O)NCCc3ccccc3)N2C1=O)NCc1ccc(F)cc1 (stereo unspecified)	inactive: 14.7%	–
CCC(NC(=O)Nc1cccc(C)c1)c1c(-n2cccc2)sc2c1CCN(C)C2 (stereo unspecified)	inactive: -21.7%	–
Cc1ccc(CNC(=O)CSCc2nc(-c3cccc(C)c3)oc2C)cc1	inactive: 4.75%	–
Cc1cn2c(=O)c(S(=O)(=O)NCc3ccc(F)cc3)c(C)nc2s1	–	inactive
Cn1c(/C(C#N)=C/c2ccc(C(F)(F)F)cc2)nc2ccccc21	inactive: -2.88%	–
CCOc1ccccc1NC(=O)Cn1nc(N2CCN(c3ccccc3)CC2)ccc1=O	inactive: -5.32%	–
O=C(NCc1ccccc1Cl)c1ccc(-n2cnc3cccnc32)cc1	–	inactive
COc1ccc(-c2c(C)nn3c(N4CCN(c5cc(Cl)ccc5C)CC4)cc(C)nc23)cc1OC	–	inactive
COc1ccccc1CNC(=O)CSc1cc(C)[nH]c(=O)n1	–	inactive
Cc1ccn2c(Nc3ccc4c(c3)OCCO4)c(-c3ccc(N(C)C)cc3)nc2c1	inactive: -9.06%	–
CCOc1ccc(-c2nnc(SCC(=O)N(CC)c3cccc(C)c3)o2)cc1	inactive: 2.87%	–
O=C(Cn1c(=O)n(-c2ccccc2Cl)c(=O)c2sc3ccccc3c21)NC1CCCC1	–	inactive
CCCN(CCC)C(=O)Cn1c(=O)n(-c2ccc(Cl)c(Cl)c2)c(=O)c2c(C)c(C(=O)N(C)C)sc21	–	inactive
CCOc1ccc(OCC)c(NC(=O)C2CCCN(S(=O)(=O)c3ccc(C)cc3)C2)c1 (stereo unspecified)	inactive: -16.3%	–

SMILES	activity change, negative = inhibition	outcome
Cc1sc2ncn(CC(=O)N3CCN(c4ccccc4)CC3)c(=O)c2c1S(=O)(=O)N1CCC(C)CC1	inactive: -0.751%	–
Cc1ccc(CNC(=O)CCCc2nnc3n(CC(C)C)c(=O)c4sccc4n23)cc1	–	inactive
CCOC(=O)c1ccccc1NC(=O)c1nn(-c2ccc(OC)c(Cl)c2)c(=O)c2c1c1ccccc1n2C	inactive: -1.01%	–
CCc1ccc2occ(CC(=O)Nc3ccc(C)c(C)c3)c2c1	inactive: -5.59%	–
CC1=C(c2ccc(C(C)C)cc2)S(=O)(=O)NC1=NCc1ccc(Cl)cc1	–	inactive
CCCCCCCCOc1ccccc1C(=O)Nc1ccc(C(=O)OCC[N+](C)(CC)CC)cc1	inactive: -3.89%	–
COCCCNC(=O)C1CCN(c2nc3ccc(Cl)cc3[nH]2)CC1	inactive: 2.39%	–
CCN(CC)C(=O)C1CCCN(c2ncnc3c2c(-c2ccccc2)cn3-c2cccc(C)c2)C1 (stereo unspecified)	–	inactive
Cc1cccc(NC(=O)N2CC=C(c3c[nH]c4ccccc34)CC2)c1C	inactive: 2.98%	–
O=C(CN1C(=O)CSc2ccc(S(=O)(=O)N3CCCC3)cc21)NCc1ccc(F)cc1Cl	–	inactive
O=C(c1cc2cc3ccc(Cl)cc3nc2o1)N1CCN(c2cccc(Cl)c2)CC1	inactive: 68.1%	–
O=c1c2nncn2ccn1-c1ccc(F)c(F)c1	–	inactive
CCOc1ccc(OCC)c(NC(=O)c2cc(-c3cccs3)nc3ccccc23)c1	inactive: 0.308%	–
CCCCOC(=O)c1ccc(Nc2nc3ccc(C(=O)c4ccccc4)cc3n3cnnc23)cc1	–	inactive
COc1ccc(CNC(=O)c2ccc(CS(=O)(=O)c3ccc(Br)cc3)o2)cc1	–	inactive
Cc1ccc(Cl)cc1Nc1nn2c(=O)c3ccc(C(=O)NC4CCCCC4)cc3nc2s1	–	inactive
CCOc1ccc2c(c1)c(=O)c(S(=O)(=O)c1ccc(CC)cc1)cn2Cc1cccc(Cl)c1	inactive: -0.112%	–
CN1CCN2c3ccccc3Cc3ccccc3C2C1 (stereo unspecified)	inactive: 2.07%	–
COc1ccc(OC)c(NC(=O)CS(=O)(=O)Cc2nc(-c3ccc(C)cc3)oc2C)c1	–	inactive
CCCSc1ncnc2c1c(-c1ccccc1)cn2-c1ccccc1OC	inactive: -3.7%	–
COc1ccc(-c2cn3nc(SCC(=O)Nc4cc(C)cc(C)c4)ccc3n2)cc1	inactive: -0.857%	–

SMILES	activity change, negative = inhibition	outcome
CCc1cccc(C)c1NC(=O)Cn1ncc2c3ccccc3n(Cc3ccccc3)c2c1=O	inactive: 1.71%	–
O=c1c(N2CCN(c3cccc(Cl)c3)CC2)csc2ccc(Cl)cc12	inactive: -1.04%	–
O=C1CCSc2ccc(S(=O)(=O)Nc3cccc(C(F)(F)F)c3)cc2N1	inactive: 6.7%	–
O=c1c2sccc2n(Cc2cc(=O)n3cc(Cl)ccc3n2)c(=O)n1-c1ccccc1	inactive: -4.46%	–
CCOC(=O)c1[nH]c(C)c(CCC(=O)Nc2cc(Cl)c(OC)cc2OC)c1C	inactive: -8.18%	–
Cc1cc(C)c(NC(=O)Cn2c(=O)n(CC(=O)NCCc3ccccc3)c(=O)c3ccccc32)c(C)c1	inactive: 4.75%	–
O=C(NC1CCCCCC1)c1ccc(CS(=O)c2cccc(Cl)c2)o1 (stereo unspecified)	inactive: -6.95%	–
O=C(CSc1nc2ccccc2n1Cc1cccc(F)c1)N1CCN(c2ccc(F)cc2)CC1	inactive: -25.6%	–
O=C(NCc1ccccc1Cl)c1ccc2c(c1)N(Cc1ccccc1)CCS2	inactive: -17.1%	–
Cc1ccc(CCNC(=O)c2ccc3c(c2)N(Cc2ccc(F)cc2)CCS3)cc1	inactive: 5.68%	–
CCC(C)NC(=O)c1cn(CC)c2ccc(S(=O)(=O)N3CCc4ccccc4C3)cc2c1=O (stereo unspecified)	–	inactive
Cc1nc(-c2ccc(C)c(S(=O)(=O)N3CCC(C(=O)NCc4ccc(F)cc4)CC3)c2)no1	inactive: 24.8%	–
CC(=O)c1cccc(N2C(=O)CN(S(C)(=O)=O)CC2(C)C(=O)NC2CCCC2)c1 (stereo unspecified)	inactive: 9.53%	–
N[C@@H](Cc1ccc(O)c(O)c1)C(=O)O	inactive: 0.186%	–
CCc1ccc(NC(=O)Cn2c(=O)n(CCc3ccccc3)c(=O)c3sc4ccccc4c32)cc1	inactive: 8.31%	–
COc1ccc(S(=O)(=O)N(CCc2ccccc2)CC(=O)Nc2cc(C)cc(C)c2)cc1OC	inactive: 0.163%	–
COc1ccccc1N1CCN(S(=O)(=O)CCNC(=O)C(c2ccccc2)c2ccccc2)CC1	–	inactive
Cc1ccc(C)c(CNC(=O)CN2C(=O)CSc3ccc(S(=O)(=O)N(C)C)cc32)c1	–	inactive
Cc1cccc(-n2nnc(-c3nc(-c4cccs4)no3)c2N)c1	inactive: 0.177%	–
